The text below walks through data of ChEMBL document CHEMBL1156829.

In all, about 5,400 compounds were measured (“IFI”: median about 2, highest 2% from about 22 on). The list shows a part of the results.

The experiment in a line: NOVARTIS: Inhibition Frequency Index (IFI) - the number of HTS assays where a compound showed > 50% inhibition/induction, expressed as a percentage of the number of assays in which the compound was tested. Format: functional.
As for `CC(C)N(CCNc1ncnc2c1[nH]c1ccc(Cl)cc12)C(C)C`, the IFI came out at 2.44%.

Compound `CCCCCN(C(=O)c1cccc([N+](=O)[O-])c1)C(CC)c1nc2ccccc2c(=O)n1-c1ccccc1OC` (stereo not drawn) had an IFI of 0.935%.

For `COc1ccc(C2CC(c3c(-c4ccccc4)c4cc(Cl)ccc4[nH]c3=O)=NO2)cc1` (stereo not drawn), the IFI amounted to 0%.

Compound `CN(/C=C/C1=[N+](C)c2ccc(Cl)cc2C1(C)C)c1ccccc1` returned an IFI of 0%.

As to `CCCc1cc2c(=O)c(-c3ccc4c(c3)OCO4)c(CC)oc2cc1OC(C)C`, the IFI amounted to 4.82%.

Consider `C(#Cc1ccccc1)CN(Cc1ccccn1)Cc1ccccn1`, for which the IFI turned out to be 0%.

In the case of `COc1cc(NC(=O)Cc2ccccc2OC)cc(OC)c1`, the IFI stood at 0%.

Compound `CCCCCn1c(C)[n+](CCCC)c2cc(Cl)c(Cl)cc21` had an IFI of 7.14%.

`CN(C)c1ccc(/C=C2/SC(=Nc3ccccc3Cl)NC2=O)cc1` had an IFI of 12.6%.

Take `FC(F)(F)c1cccc(Nc2nc3nonc3nc2Nc2ccc(Cl)cc2)c1`: the IFI turned out to be 22.7%.

`CCCCNCCN1CCN(c2ccc(OC)cc2)C[C@@H]1c1ccccc1` showed an IFI of 2.44%.

On to `COc1ccc(N(C)C(=O)CNC(=O)c2nn(-c3ccc(OC)cc3OC)c(=O)c3ccccc23)cc1`, for which the IFI was 0%.

`CN(CCCNc1ccnc2cc(Cl)ccc12)C(=O)c1ccc(Br)cc1` showed an IFI of 1.85%.

Compound `CCCCOc1ccc(C(=O)Oc2ccccc2-c2nc3cc(C)ccn3c2NC(C)(C)CC(C)(C)C)cc1` had an IFI of 4.67%.

For the compound `Cc1c(Cl)cccc1-n1c(C(C)N(CCc2ccccc2)C(=O)COc2ccccc2)nc2ccccc2c1=O` (stereo not drawn), the IFI worked out at 5.56%.

In turn, `Cc1ccc(-c2c[n+](CC(=O)c3ccccc3Cl)c3n2CCC3)cc1` showed an IFI of 4.76%.

`O=C(Nc1ccccc1)Nc1ccc(S(=O)(=O)Nc2ccc(Br)cc2)cc1` registered an IFI of 0%.

`O=[N+]([O-])c1ccc(Cl)c(-c2ccc(C=NNc3nc4ccccc4[nH]3)o2)c1` yielded an IFI of 2.48%.

Take `CCCCN1Cc2ccc(C(N)=O)cc2N=C1C1CC1`: the IFI was 2.44%.

In the case of `CCCN1/C(=C/c2sc3ccccc3[n+]2CC)C=Cc2ccccc21`, the IFI was 23.1%.

Compound `c1ccc(Nc2nc(-c3ccccn3)cs2)nc1` showed an IFI of 18.1%.

`CCC12C(=O)C(CC)(C(c3ccccc3)=C1c1ccccc1)C1C(=O)N(c3cccc(C(F)(F)F)c3)C(=O)C12` (stereo not drawn) had an IFI of 0%.

`COc1ccc(C2CC(c3cccs3)=NN2C(=O)CSc2nnc(CNC(=O)c3cccs3)n2-c2cccc(C)c2)cc1` (stereo not drawn) gave an IFI of 3.57%.

`Fc1ccc(CN2CCc3nc(N4CCCCC4)sc3C2)cc1F` returned an IFI of 4.17%.

On to `Cc1cc(C)nc(SCc2cc(=O)c(OC(=O)c3cccc([N+](=O)[O-])c3C)co2)n1`, for which the IFI was determined as 0%.

`c1ccc(-c2csc(Nc3nc4cc5c(cc4s3)OCO5)n2)nc1` gave an IFI of 17.8%.

On to `CC(C)NCC(O)Cn1c2ccc(Cl)cc2c2cc(Cl)ccc21` (stereo not drawn), for which the IFI is 4.25%.

Take `O=C(Nc1ccc(-c2nc3ccccc3[nH]2)cc1)c1ccc(-c2ccc(Cl)cc2)o1`: the IFI was found to be 11.9%.

As to `O=c1[nH]n(CC2COC(c3ccccc3)O2)c(=O)c2ccccc12` (stereo not drawn), the IFI was 1.16%.

With `O=C(CCn1c(=S)oc2ccccc21)N1CCN(c2ccccc2)CC1`, the IFI was determined as 4.41%.

On to `O=C(C1CC=CCC1)N1CCCC(c2ncncc2-c2ccncc2)C1` (stereo not drawn), for which the IFI amounted to 0%.

Compound `O=C(C[n+]1cc(-c2ccc(F)cc2)n2c1CCC2)Nc1ccc(Cl)cc1` came in with an IFI of 2.7%.

In the case of `CCc1ccc(-n2c(C(CC)N(CCc3ccc(OC)c(OC)c3)C(=O)C(CC)c3ccccc3)nc3ccccc3c2=O)cc1` (stereo not drawn), the IFI turned out to be 2.88%.

Compound `C=CCOC(=O)C1=C(C)N=C2SCCC(=O)N2C1c1ccc(OC(=O)c2ccco2)cc1` (stereo not drawn) displayed an IFI of 0%.

`COc1ccc(C(=O)NC(c2ccccc2Cl)c2cc(Cl)c3cccnc3c2O)cc1` (stereo not drawn) returned an IFI of 6.35%.

Take `CC(C)(C)CC(C)(C)Nc1c(-c2ccccc2OC(=O)c2ccc(Br)cc2)nc2ccccn12`: the IFI was 2.83%.

The compound `Cn1c(SCC(=O)Nc2cccc(F)c2)nc2c(c1=O)SCC2` had an IFI of 0%.

Compound `O=C(Nc1ccc(-c2nc3cc(NC(=O)c4cccs4)ccc3[nH]2)cc1)c1cccs1` showed an IFI of 8.33%.

For `CCC(=O)N1c2ccccc2NC2=C(C(=O)CC(C)(C)C2)C1c1ccc2c(c1)OCO2` (stereo not drawn), the IFI turned out to be 0%.

Compound `COc1ccc(/C=C2/SC(Nc3ccc(F)cc3)=NC2=O)c(OC)c1` gave an IFI of 0%.

Take `CCOC(=O)c1nc2nc(C)cc(O)n2n1`: the IFI stood at 3.49%.

In turn, `COc1cccc(Cn2c3cc(C)sc3c3cnn(C)c(=O)c32)c1` yielded an IFI of 0%.

Compound `CCOC(=O)C(=O)N1c2ccccc2-c2c(ssc2=S)C1(C)C` had an IFI of 0%.

Consider `CC1CCN(C(=O)C(C)N(c2ccccc2)S(C)(=O)=O)CC1` (stereo not drawn), for which the IFI stood at 0%.

As for `O=C(Nc1cc(C(F)(F)F)ccc1N1CCOCC1)C(Cl)(Cl)Cl`, the IFI was 0%.

`Cc1ccc(Nc2nc3c(N)nnc(N)c3nc2Nc2ccc(C)cc2)cc1` yielded an IFI of 2.98%.

With `CCc1cc(=O)n(C)c(SC(C)C(=O)Nc2ccc(F)cc2)n1` (stereo not drawn), the IFI was found to be 3.16%.

As to `CN(C)c1cc[n+](CC(=O)Nc2ccc(Cl)cc2)cc1`, the IFI is 6.42%.

As for `CCCCOc1ccc(/C=C/C(=O)NCc2ccco2)cc1`, the IFI was 0%.

`C[n+]1c(C=CNc2ccccc2)n(-c2ccccc2)c2ccc(Cl)cc21` displayed an IFI of 12.5%.

`CC(=Cc1sc2ccc3occc3c2[n+]1CCO)C=C1Sc2ccc3ccoc3c2N1CCO.CCC(=Cc1sc2ccc3ccccc3c2[n+]1C)C=C1Sc2ccc3ccccc3c2N1C`: the IFI came to 11.1%.

`Cn1c(-c2ccc([N+](=O)[O-])cc2)[n+](C)c2ccccc21`: the IFI was 1.3%.

Regarding `COc1ccc(/C=C/C(=O)NC(=O)c2ccccc2O)cc1`, the IFI came out at 8.33%.

`CCCC(=O)Oc1ccccc1-c1nc2ccccn2c1NC(C)(C)CC(C)(C)C` had an IFI of 3.67%.

Turning to `O=[N+]([O-])c1ccc(-n2ncc(-c3nc(-c4ccc(Cl)cc4)no3)c2C(F)(F)F)cc1`, the IFI was found to be 0.862%.

Compound `CNC1=C(N(C(C)=O)c2ccc(Br)cc2)C(=O)c2ccccc2C1=O` yielded an IFI of 14.3%.

Compound `Cc1ccc(C(=O)NNc2nc(Nc3ccccc3)nc(N3CCCC3)n2)cc1` had an IFI of 0.73%.

`O=C1Nc2ccc(Br)cc2C12NCCc1c2[nH]c2ccccc12` (stereo not drawn) had an IFI of 1.09%.

As to `COc1ccccc1-n1nnnc1SCC(=O)Nc1cc([N+](=O)[O-])ccc1C`, the IFI was determined as 2.75%.

`Cc1cc(C)n(-c2ccc(NC(=O)C3CCN(Cc4ccc5nonc5c4)CC3)cc2)n1` came in with an IFI of 0%.

`Cc1cc(Nc2cccc(C(F)(F)F)c2)nc(NCc2ccccc2)n1` had an IFI of 5.88%.

In turn, `CC(C)(C)c1ccc(NC(=O)CN2CCCCC2)cc1` showed an IFI of 2.65%.

In turn, `CC1CN(C(=O)c2sc3cccc(F)c3c2Cl)CC(C)O1` (stereo not drawn) had an IFI of 0%.
